Among all 310,000 compounds or so, about 2,200 (0.71%) showed an effect of 50% or more. Effects have a minus sign here. The list shows a part of the results.
These compounds were tested against human ether-à-go-go-related gene (hERG) potassium channel (human, UniProt Q12809) (assay: primary screen, population patch clamp on CHO cells stably expressing hERG).
human ether-à-go-go-related gene (hERG) potassium channel, sequence (Q12809 whole entry, looked up): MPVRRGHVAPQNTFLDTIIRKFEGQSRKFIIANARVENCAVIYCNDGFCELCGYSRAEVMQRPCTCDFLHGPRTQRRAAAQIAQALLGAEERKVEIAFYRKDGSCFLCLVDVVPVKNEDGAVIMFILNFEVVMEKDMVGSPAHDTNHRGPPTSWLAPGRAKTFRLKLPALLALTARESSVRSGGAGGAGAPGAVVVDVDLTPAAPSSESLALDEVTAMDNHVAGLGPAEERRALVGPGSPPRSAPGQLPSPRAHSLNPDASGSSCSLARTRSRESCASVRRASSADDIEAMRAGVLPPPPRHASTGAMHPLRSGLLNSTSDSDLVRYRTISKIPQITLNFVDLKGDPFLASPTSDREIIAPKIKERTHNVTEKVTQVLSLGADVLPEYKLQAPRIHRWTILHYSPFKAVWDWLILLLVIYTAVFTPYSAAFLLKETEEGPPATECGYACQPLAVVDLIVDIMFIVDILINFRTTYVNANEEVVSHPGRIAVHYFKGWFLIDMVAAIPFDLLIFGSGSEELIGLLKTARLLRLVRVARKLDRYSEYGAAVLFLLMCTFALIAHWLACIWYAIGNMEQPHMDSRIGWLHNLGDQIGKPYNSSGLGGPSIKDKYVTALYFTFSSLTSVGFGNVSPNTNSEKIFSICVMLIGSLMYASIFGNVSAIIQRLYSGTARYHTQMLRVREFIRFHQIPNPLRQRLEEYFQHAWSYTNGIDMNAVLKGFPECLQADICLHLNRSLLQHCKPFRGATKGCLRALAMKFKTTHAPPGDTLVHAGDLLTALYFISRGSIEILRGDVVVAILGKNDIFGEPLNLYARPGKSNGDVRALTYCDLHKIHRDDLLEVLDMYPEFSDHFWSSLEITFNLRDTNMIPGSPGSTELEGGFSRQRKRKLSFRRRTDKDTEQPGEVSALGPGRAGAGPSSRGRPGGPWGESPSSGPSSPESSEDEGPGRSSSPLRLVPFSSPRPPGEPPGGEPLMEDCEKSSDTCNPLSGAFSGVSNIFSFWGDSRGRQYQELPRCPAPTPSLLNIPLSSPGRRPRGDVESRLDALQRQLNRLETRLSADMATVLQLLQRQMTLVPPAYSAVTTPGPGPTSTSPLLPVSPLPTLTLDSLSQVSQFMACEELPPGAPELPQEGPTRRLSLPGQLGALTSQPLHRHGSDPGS

Structure (SMILES) | hERG current change (%, negative = inhibition) at 1uM
Cn1ncc(Cl)c1C(=O)N1CCN(c2ccccc2)CC1 | 13.5%
Nc1ccc(SC(F)(F)F)cc1C(=O)c1ccccc1 | 7.74%
N#CC1=C(N)Oc2c(c(=O)oc3ccccc23)C1c1ccc(OC(=O)N2CCOCC2)cc1 (stereo not shown) | 3.2%
O=C(CNC(=O)C1CCCCC1)NCCCO | 7.31%
CCOc1ccccc1CN1CCN(Cc2cccc3nonc23)CC1CCO (stereo not shown) | -50%
Cc1cc(C)n2ncc(C(=O)NCc3ccccc3)c2n1 | 2.31%
Cn1c(CNC(=O)c2ccco2)nnc1SCC(=O)Nc1ccc(Br)cc1F | -13.9%
CCCCNC(=O)C1(NC(=O)Nc2ccc(C)cc2)CCCCC1 | 15.2%
COc1ccc(NC(=O)CSc2nnc(C)n2C2CCCCC2)cc1 | 2.3%
CCC(=O)Nc1cccc2c1C(=O)N(C)C2=O | 7.02%
N/C(Cc1ccc([N+](=O)[O-])cc1)=N\OC(=O)Cc1ccc(Cl)cc1 | 13.3%
COc1ccc(-c2nnc(CSc3nc4ccccc4c(=O)n3CC(C)C)o2)cc1OC | 12%
COc1cc(C)ccc1OCCCCOc1ccccc1C(C)=O | 11.6%
COc1ccc(C(=O)Nc2ccccc2C(=O)NCc2cccnc2)cc1OC | -8.05%
O=C(CSc1ncnc2scc(-c3ccc(F)cc3)c12)c1ccc2c(c1)OCCO2 | 13%
O=C(Nc1ccccc1N1CCOCC1)c1cc2c(s1)CCCCC2 | 8.56%
O=C(CN(C(=O)CNC(=O)c1cccs1)c1ccccc1F)NC1CCCCC1 | 16.3%
Cc1cc(-c2csc3ncnc(N4CCN(C)CC4)c23)cc(C)c1C | -12%
Cc1cc(C)c2nc(C(F)(F)F)nc(N3CCN(C(=O)c4ccco4)CC3)c2c1 | 1.46%
Cl.NNCc1cccc(O)c1 | 8.09%
COCCn1c(SC(C)C(=O)Nc2ncc(Cl)cc2Cl)nc2ccccc21 (stereo not shown) | -3.16%
Cc1c(Cl)cccc1NC(=O)CCC(=O)NNC(=O)c1ccccc1 | 9.01%

Structure (SMILES) | hERG current change (%, negative = inhibition) at 1uM
CCOc1ccc(C(C(=O)NC2CCCC2)N(CCOC)C(=O)CNC(=O)c2ccco2)cc1 (stereo not shown) | 1.49%
O=C(NC1CCCC1)c1ccc([N+](=O)[O-])s1 | 0.602%
COc1ccc(S(=O)(=O)N(CCc2ccccc2)CC(=O)N2CCOCC2)cc1 | -0.7%
CC(=O)Nc1ccc(S(=O)(=O)NC(CC(=O)O)c2ccc(C)cc2)cc1 (stereo not shown) | 7.14%
O=C(CSc1nnc(-c2cccc(S(=O)(=O)N3CCCCC3)c2)o1)c1ccc[nH]1 | 10.2%
COc1cccc(CN(C)C(=O)c2ccc(Oc3ccccc3)cc2)c1OC | 6.1%
CCC(NC(=O)Cc1c(C)c2c(cc(C)c3c(C)c(C)oc32)oc1=O)C(=O)O (stereo not shown) | 10.5%
Cc1ccc(CNC(=O)c2ccc(N3CCC4(CC3)CC(c3ccccc3)=NO4)c(NC(=O)c3ccc(Br)cc3)c2)cc1 | 20.9%
COCCNC(=O)C(OC(=O)C1=Cc2ccccc2OC1)C(C)C (stereo not shown) | 12%
CCOC(=O)N1CCC(NC(=O)c2ccc3c(c2)N=C(CC)c2cc(C)ccc2S3)CC1 | 12%
CCN(c1cccc(C)c1)S(=O)(=O)c1ccc2[nH]c(=O)c(=O)[nH]c2c1 | -3.15%
Cc1ccc(-n2c(C)nc3ncnc(-c4ccccc4)c32)cc1 | 8.56%
CC(=O)CCc1c(C)c2cc(C)ccc2[nH]c1=O | 0.299%
COCCNC(=O)COc1ccc(N(C)S(=O)(=O)c2ccc3ccccc3c2)cc1 | 3.32%
CS(=O)(=O)N(Cc1ccccc1)c1ccc(C(=O)N2CCc3ccccc3C2)cc1 | 3.66%
COc1cccc(C(C(=O)NC2CCCC2)N(CCC(C)C)C(=O)CCC(=O)Nc2cc(C)on2)c1 (stereo not shown) | -4.96%
CC(C)n1c(C(F)(F)F)nc2cc(C(=O)N3CCOCC3)ccc21 | 8.44%
COc1ccc(C(=O)/C=C/c2ccc(N3CCCCC3)c([N+](=O)[O-])c2)c(OC)c1 | 7.9%
Fc1ccccc1CSc1ncnc2sc3c(c12)CCCC3 | 8.62%
CC(=O)Nc1ccc(S(=O)(=O)N2CCC(C(=O)NCCc3ccc(Cl)cc3)CC2)cc1 | 7.33%
COC(=O)c1nc(NC(=O)C(C)C)n[nH]1 | -7.19%
CC1CCc2c(sc(NC(=O)CSc3ncn[nH]3)c2C#N)C1 (stereo not shown) | 15.7%

Structure (SMILES) | hERG current change (%, negative = inhibition) at 1uM
CCOC(=O)[C@H]1[C@H]2COc3ccc(Cl)cc3[C@@H]2N2C(=O)CN(CC3CCCO3)C(=O)[C@@]12C (stereo partly shown) | 15.6%
COc1ccc(NC(=S)N(CCCN2CCN(C)CC2)Cc2cccs2)cc1 | -14%
CC1SC(c2ccc(F)cc2)N(CCc2ccccc2)C1=O (stereo not shown) | 10.1%
COc1cc(C(=O)N2CCCC(c3nc(-c4cccs4)no3)C2)cc(OC)c1OC (stereo not shown) | 1.54%
Cc1ccc(F)c([C@H]2C3C=CCC(c4ccccc4)C3C(=O)N2Cc2ccccc2)c1 (stereo partly shown) | 12.4%
CC(=O)c1c(O)cc(O)c(C(C)=O)c1O | 6.85%
CCOC(=O)NC(=O)/C(C#N)=N/Nc1c(F)cccc1F | 7.05%
O=C(CCc1nc2ccccc2s1)Nc1cccnc1 | -0.146%
Cc1oc(-c2cccs2)nc1CS(=O)CC(=O)NCCc1ccccc1 (stereo not shown) | 1.54%
CN(CC(=O)Nc1ccccc1Br)C(=O)c1cccn1C | 15.4%
CC(OC(=O)C(C)N1C(=O)C2C3C=CC(C4CC34)C2C1=O)C(=O)c1ccccc1 (stereo not shown) | 12.4%
CCCCN=c1scc(-c2ccc3c(c2)NC(=O)CO3)n1N=C1CCCC1 | 17.1%
COC(=O)N/N=C/c1ccc(OC(=O)c2ccco2)c(OC)c1 | 21.5%
CCN1CCC(NC(=O)Nc2ccc(F)cc2)CC1 | 5.72%
Cc1cc(NC(=O)COC(=O)CCS(=O)(=O)c2cc(Cl)ccc2Cl)no1 | 16.3%
O=C(Nc1nncs1)c1cccc(S(=O)(=O)N2CCOCC2)c1 | 2.43%
O=C(Nc1cc2c(cc1Br)OCCCO2)c1cccnc1 | 3.19%
CCOC(=O)c1sc2nc(N3CCOCC3)c3c(c2c1N)CC(C(C)C)OC3 (stereo not shown) | 7.72%
C=CCNC(=O)CN1C(=O)c2cccc3cccc1c23 | 4.05%
Cc1cc(C)nc(NC(=O)/C=C/c2ccccc2Cl)c1 | 22.1%
O=C(COc1ccc2c(-c3ccccc3)cc(=O)oc2c1)N[C@@H](Cc1c[nH]c2ccc(O)cc12)C(=O)O | 14.2%
COc1ccc(C(=O)n2nc(-c3ccc(C)cc3)nc2N)cc1OC | 10.8%

Structure (SMILES) | hERG current change (%, negative = inhibition) at 1uM
CC1CCCN(S(=O)(=O)c2ccc3c(c2)C(C)(C)C(=O)N3C)C1 (stereo not shown) | 10.3%
Fc1ccc(CO/N=C2\CCCc3nonc32)cc1 | -7.13%
CC(C)(C)NC(=O)CSc1nnc(NC(=O)c2ccccc2Cl)s1 | 8.52%
CC(C)Cc1csc(NC(=O)c2ccc(Br)cc2)c1C(=O)O | 15.5%
COc1ccccc1N1CCN(/N=C/c2ccc([N+](=O)[O-])cc2)CC1 | 9.01%
CCC(C)N=C1CC(C)(C)CC(=O)/C1=C(/O)Cc1ccccc1 (stereo not shown) | 5.75%
O=C(CNC(=O)c1cc2ccccc2o1)NCc1cccs1 | 15.4%
CNC(=O)N(O)C1N(/N=C/c2ccc(SC)cc2)C(=S)SC1(C)C (stereo not shown) | 18.6%
CCN(CC)c1ccc(/C=N/NC(=O)Cc2cccs2)c(O)c1 | 13%
Cc1ccc([N+](=O)[O-])cc1S(=O)(=O)N1CCC(C)CC1 | 24%
Cc1[nH]nc(SCC(=O)NCC(C)C)c1[N+](=O)[O-] | 9.93%
Cc1csc(CN(C)C(=O)CC2C(=O)NCCN2Cc2ccc(F)cc2Cl)n1 (stereo not shown) | -0.193%
Cc1ccc(NC(=O)c2ccc3nc[nH]c3c2)cc1C | -3.57%
O=C(Nc1ccc2c(c1)CCCN2C(=O)c1cccs1)c1c(F)cccc1F | 19.6%
CC(=O)Nc1cccc(-c2nnc(SCC(=O)n3c4c(c5ccccc53)CCCC4)n2C)c1 | 9.09%
COc1ccccc1-c1cc(C(=O)N2CCOCC2)no1 | 16.7%
COc1ccc(Cn2c(C(C)C)nc3sc4ccccc4c(=O)c3c2=O)cc1 | 13.7%
Cc1ccc(Cl)c(OCC(=O)OC(C)C(=O)NC2CC2)c1 (stereo not shown) | 12.6%
Nc1ccc(S(=O)(=O)N2CCc3ccccc32)cc1 | 9.7%
CN(C)c1ccc(C(CNS(=O)(=O)c2cccc([N+](=O)[O-])c2)N2CCOCC2)cc1 (stereo not shown) | 7.55%
CC(=O)Nc1ccc(NC(=O)Cn2c(=O)n(-c3ccccc3)c(=O)c3oc4ccccc4c32)cc1 | -1.05%
COc1cc(C(=O)Nc2ccc(-n3cnnn3)c(C)c2)cc(OC)c1OC | 10.8%
